The other results are listed elsewhere or left out.
Test system: T1, C. trachomatis L2/434/Bu expressing GFP (CTL2-GFP)
T1 construct: L2/434/Bu GFP intracellular growth in HeLa cells
Design: species or system HeLa; C. trachomatis total inclusion area by high-content imaging, normalised to DMSO
Conditions: total inclusion area; 28.5 h, 10 µM; inhibitor
Procedure, shortened: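 High-content images of fixed, Hoechst-stained infected cultures supply inclusion area and count (growth) plus nuclei number (viability), complementing bulk GFP/resorufin fluorescence. MIC determination is unchanged from the primary assay.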

First: O=C(c1ccco1)N1CCC(n2cnc3cccnc32)CC1 [CBK283939]
Second: O=C(Cc1cccs1)N1CCC(c2cc3ncccc3[nH]2)CC1 [CBK283393]
The “% of control remaining” value of the first is lower: 85.8484 for the first, 94.453 for the second.

Compared with `O=C(NCCc1c[nH]c2ccc(Cl)cc12)c1cc(F)c(Cl)cc1F` [CBK159763], `O=C(CSc1nc2cccnc2[nH]1)Nc1cc(Cl)ccc1Cl` [CBK264644] is higher in “% of control remaining” value: 104.546 for the first, 119.14 for the second.

First: O=C(O)c1ccccc1C(=O)N1CCC2(CC1)NCCc1c2[nH]c2ccccc12 [CBK047235]
Second: O=C(c1cccc(C(F)(F)F)c1)N1CCCC2(CCN(Cc3ccccc3)C2)C1 (centres unmarked) [CBK137039]
The “% of control remaining” value of the first is lower: 78.0445 for the first, 88.8013 for the second.

First: c1coc(CNc2nc(-c3ccoc3)cn3ccnc23)c1 [CBK066610]
Second: C/C(=N\NC(=O)CSc1nc2ccccc2n1Cc1ccccc1)c1ccco1 [CBK263180]
The “% of control remaining” value of the first is higher: 77.8694 for the first, 65.0254 for the second.

Going from `Cc1ccc(S(=O)(=O)c2ccc(C)c(S(=O)(=O)N3CCOCC3)c2)cc1S(=O)(=O)N1CCOCC1` [CBK261677] to `Cc1ccc(S(=O)(=O)Nc2ccc3c(ccn3CCOC3CCN(C(=O)OC(C)(C)C)CC3)c2)cc1Cl` [CBK172991], the “% of control remaining” value falls from 101.981 to 69.4658.

Compared with `COc1ccc(Oc2nccnc2N2CCN(Cc3ccc(Cl)cc3)CC2)cc1OC` [CBK083041T], `COc1ccc([C@@]23CC[C@@H](NC(=O)Nc4ccc(Cl)nc4)C[C@@H]2N(C)CC3)cc1OC` [CBK045764] is higher in “% of control remaining” value: 66.9492 for the first, 72.9245 for the second.

First: CC(C)=NNC(=O)CSc1nc(N2CCOCC2)c2ccccc2n1 [CBK009114]
Second: COCCCNC(=S)Nc1ccc(N2CCOCC2)c2nonc12 [CBK266947]
The “% of control remaining” value of the first is higher: 98.4995 for the first, 91.2339 for the second.

First: CC(=O)NC[C@H]1CN(c2ccc(-c3nnc([C@@H](C)N)s3)c(F)c2)C(=O)O1 [CBK017966]
Second: CCOC(=O)CSc1nnc(NS(=O)(=O)c2cccc(Cl)c2C)s1 [CBK004669]
The “% of control remaining” value of the first is lower: 0.08965 for the first, 73.0622 for the second.

Compared with `COCCn1cnnc1C(C)NC(=O)Cn1cc2ccccc2n1` (centres unmarked) [CBK307047], `CCOCCn1nc(C)cc1C(=O)NC(CC)c1cn2cccnc2n1` (centres unmarked) [CBK307377] is lower in “% of control remaining” value: 86.7817 for the first, 61.606 for the second.

First: O=S(=O)(c1ccccc1)C1C2C=CC(COC3CCCCO3)(O2)C1S(=O)(=O)c1ccccc1 (centres unmarked) [CBK020045]
Second: O=C(COc1ccccc1)C(C(=O)c1ccccc1)=C1Nc2ccccc2N1 [CBK263725]
The “% of control remaining” value of the first is lower: 96.6169 for the first, 111.715 for the second.

First: Cc1cc(O)nc(C(C)N2CCCN(CC(F)(F)F)CC2)n1 (centres unmarked) [CBK305491]
Second: CCc1noc(C)c1C(=O)N1CC[C@@H](CNC(=O)N2CCCC2)[C@H](O)C1 [CBK307222]
The “% of control remaining” value of the first is higher: 98.5837 for the first, 85.5375 for the second.

First: O=C(Nc1cc(N2CCCS2(=O)=O)ccc1F)c1n[nH]c2ccccc12 [CBK304216]
Second: COc1cc(Cl)c(C)cc1NC(=O)c1ncn(-c2ccccc2)n1 [CBK269456]
The “% of control remaining” value of the first is lower: 34.5869 for the first, 81.5277 for the second.

First: COc1ccc(C(=O)C2=C(O)C(=O)N(CCN3CCNCC3)C2c2ccccc2F)cc1 (centres unmarked) [CBK264666]
Second: COc1ccc(C(=O)CN2CCN(CCN3C(=O)c4cccc5cccc(c45)C3=O)CC2)cc1 [CBK074628]
The “% of control remaining” value of the first is higher: 109.78 for the first, 91.039 for the second.

First: CC(C)NC(=O)C[C@@H]1c2nc(-c3ccccc3)sc2C[C@@H]2[C@](C)(CO)[C@H](O)CC[C@]21C [CBK289570]
Second: CC(C)(C)Cc1ccc(CC(=O)O)c(OCc2ccccc2)n1 [CBK012508]
The “% of control remaining” value of the first is higher: 104.165 for the first, 101.834 for the second.

Going from `Sc1nnc(-c2ccncc2)n1CCc1ccccc1` [CBK265819] to `O=C(CSc1nnc(-c2ccncc2)n1-c1ccccc1)Nc1ccc([N+](=O)[O-])cc1` [CBK266620], the “% of control remaining” value rises from 99.7016 to 121.567.

Going from `O=C(NCCN1CCC(O)(c2ccc(F)cc2)CC1)C1CCCCC1` [CBK283165] to `CCn1cc(S(=O)(=O)NC2(c3ccc(F)cc3)CC2)cn1` [CBK282801], the “% of control remaining” value falls from 102.306 to 77.1577.

First: Cc1cccc(OCC2CCCN(C(=O)c3cn(C)cn3)C2)c1 (centres unmarked) [CBK307021]
Second: Cc1cnn(CC(=O)N2CCC(c3cc4ncccc4[nH]3)CC2)c1 [CBK284458]
The “% of control remaining” value of the first is lower: 86.9518 for the first, 111.263 for the second.

Compared with `COCCC(=O)N1C[C@@H]2C[C@H](C1)c1ccc(NC(=O)Nc3cccc(F)c3)c(=O)n1C2` [CBK289075], `COc1ccc(CCC(=O)Nc2ccccc2N2CCCNCC2)cc1` [CBK024286T] is lower in “% of control remaining” value: 111.66 for the first, 104.892 for the second.

Going from `CCOC(=O)C(NC(=O)C1CCC(=O)N1)c1cccc(C)c1C` (centres unmarked) [CBK305472] to `Cc1cc(NC(=O)c2cccc(N3C(=O)CCC3=O)c2)no1` [CBK287352], the “% of control remaining” value rises from 24.3145 to 93.3983.

Compared with `Nc1nc(CCN2CCOCC2=O)cs1` [CBK003792], `COc1nc(NCCN2CCOCC2)nc(Nc2ccc(Cl)cc2)n1` [CBK262541] is higher in “% of control remaining” value: 84.3108 for the first, 93.0705 for the second.

Going from `COCCNc1nc(-c2ccccc2)ccc1C(=O)Nc1cccc(OC)c1` [CBK105886] to `COc1cccc(CC(=O)Nc2ccc3c(C)cc(C)nc3n2)c1` [CBK287992], the “% of control remaining” value falls from 116.595 to 109.025.

Compared with `COCCNC(=O)c1ccc(-n2ccnc2)c(-n2cccc2)c1` [CBK285369], `Cn1ccc(C(=O)NC(Cc2ccsc2)c2cccnc2)n1` (centres unmarked) [CBK285117] is lower in “% of control remaining” value: 106.763 for the first, 79.587 for the second.

Going from `CC(C)COC(=O)N1CCC2(CC1)CC(=O)N(Cc1ccc(S(C)(=O)=O)cc1)C2=O` [CBK155948] to `CS(=O)(=O)N1CCN(c2ccccc2NC(=O)COc2ccccc2Cl)CC1` [CBK269250], the “% of control remaining” value rises from 76.4218 to 87.3435.

First: O=C1N/C(=N/N=C/c2ccc(O)cc2)SC1Cc1ccccc1[N+](=O)[O-] (centres unmarked) [CBK261684]
Second: O=[N+]([O-])c1cccc(S(=O)(=O)NCCSc2ccccc2)c1 [CBK267862]
The “% of control remaining” value of the first is higher: 110.711 for the first, 110.657 for the second.

Compared with `O=C(NC1CC1)c1ccsc1NC(=O)C1C2C=CC(C2)C1C(=O)O` (centres unmarked) [CBK270322], `Cc1c(C(=O)O)sc(S(=O)(=O)N2CCN(C(=O)CCc3cccs3)CC2)c1C(=O)O` [CBK297135] is lower in “% of control remaining” value: 98.4709 for the first, 82.2794 for the second.

First: Cc1ccc(-c2csc3nc(SCC(=O)NCC4CCCO4)n(-c4ccccc4)c(=O)c23)cc1 (centres unmarked) [CBK265610]
Second: Cc1occc1-c1nnc(SCC(=O)Nc2c(C)n(C)n(-c3ccccc3)c2=O)o1 [CBK269042]
The “% of control remaining” value of the first is higher: 99.0838 for the first, 85.5869 for the second.

Compared with `C=CCC1(CC=C)CCN1C(=O)c1cccc(N2CCCC2=O)c1` [CBK282709], `O=C(Nc1cccc(N2CCNCC2)c1)C1CCCO1` (centres unmarked) [CBK004768T] is lower in “% of control remaining” value: 112.114 for the first, 96.9342 for the second.

Going from `CCc1ccc(-c2cc3c(=O)[nH]nc(S)n3n2)cc1` [CBK288485] to `COC(=O)c1ccc(NC(=O)COn2nnc3ccc([N+](=O)[O-])cc32)cc1` [CBK267106], the “% of control remaining” value rises from 76.2298 to 118.847.

Going from `CCCC/C=C/c1cncc(Nc2ccccc2)n1` [CBK037942] to `Cc1csc2nc(-c3ccccc3)cn12` [CBK098072], the “% of control remaining” value falls from 75.6693 to 61.8168.

Going from `CCC(SC1=NCCS1)C(=O)Nc1ccc(S(N)(=O)=O)cc1` (centres unmarked) [CBK263027] to `CN(CC(=O)O/N=C(\N)c1ccccn1)S(=O)(=O)c1ccc(Br)cc1` [CBK268617], the “% of control remaining” value rises from 106.249 to 127.874.

Going from `COc1ccc(N(C(C)C(=O)N/N=C(\C)c2ccccc2O)S(C)(=O)=O)cc1` (centres unmarked) [CBK262402] to `CCN1C(=O)c2cccc3c(S(=O)(=O)Nc4cccc(C(=O)O)c4)ccc1c23` [CBK299838], the “% of control remaining” value rises from 94.5027 to 121.075.

Compared with `COc1ccc(CN2C(=O)COC[C@@H]2[C@H](O)c2ccc(NC(=O)c3ccc(OC)cc3)cc2)cc1` [CBK289675], `NCc1ccc(CN(Cc2ccc(-c3ccccc3)cc2)C(=O)Nc2c(F)cccc2F)cc1` [CBK046115C] is lower in “% of control remaining” value: 105.628 for the first, 50.3485 for the second.

Going from `O=[N+]([O-])c1ccc(N2CCNCC2)cc1NCCO` [CBK262851] to `O=C1CCC2(CCN1)CCN(Cc1cccc(-c3ccco3)c1)CC2` [CBK307264], the “% of control remaining” value falls from 102.101 to 41.5635.

Going from `O=C(NCc1ccncc1)C1CC1c1ccccc1` (centres unmarked) [CBK288242] to `Cc1cc(CNC(=O)COc2ccc(C#N)cc2)c2ccccc2n1` [CBK270129], the “% of control remaining” value rises from 107.744 to 118.318.

Compared with `Cn1c(=O)oc2cc(S(=O)(=O)NCCC(=O)O)ccc21` [CBK267567], `O=C(O)COc1ccc(Br)cc1/C=C\c1nc(O)c([N+](=O)[O-])c(=O)[nH]1` [CBK267223] is higher in “% of control remaining” value: 98.7161 for the first, 115.378 for the second.

Compared with `Fc1ccc(CCN2CCC(Oc3nccnc3OCCN3CCOCC3)CC2)cc1` [CBK082937T], `CCn1cc(C(=O)O)c(=O)c2cc(F)c(N3CCN(C(=O)c4ccc(C)cc4)CC3)cc21` [CBK286986] is lower in “% of control remaining” value: 83.3608 for the first, 75.5454 for the second.

Compared with `Cc1cccc(OCc2nnc(SCC(=O)Nc3cc(C(F)(F)F)ccc3Cl)o2)c1C` [CBK267204], `CCN(CC(C)C#N)C(=O)c1nnn(-c2ccc3ncccc3c2)c1C` (centres unmarked) [CBK305292] is lower in “% of control remaining” value: 109.264 for the first, 86.9998 for the second.

Compared with `Cc1nnsc1C(=O)Nc1ncn(CC(=O)N2CCCCCC2)n1` [CBK305522], `Cc1onc(-c2c(Cl)cccc2Cl)c1N(C)C(=O)N1CCCCC1` [CBK086555] is higher in “% of control remaining” value: 16.3066 for the first, 107.765 for the second.

`COc1ccc2c(c1)OC1(CCN(C(=O)c3cc(OC)c(C)c(OC)c3)CC1)NC2=O` [CBK166244] was tested, and the “% of control remaining” value was 104.166.

Source: article PMC12040169 (PLOS Biology, 2025)
